Experimental data from PubChem BioAssay (NCATS).
Inconclusive means that the source gave no clear call. Such entries were picked first, then a sample of the others. Potencies beside an inconclusive call are fits to weak or partial responses and may not hold up. Active and inactive are the calls of the source. Calls follow the shape of the dose curve; as a rule, active = well fitted inhibition curve with a large enough effect; inconclusive = small, poorly fitted or top-dose-only effect; inactive = flat fitted curve, though single readings scatter.

Experiments:
[1] = P-glycoprotein substrates identified in KB-8-5-11 adenocarcinoma cell line, qHTS therapeutic library screen (AID 1346987); conditions: activity change, negative = cytotoxicity: at 44.5 µM (top of the series); also: nearly all actives have a fitted effect of over 65% in size
Summary of the method: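 KB-8-5-11: colchicine-selected sub-line of KB-3-1 over-expressing P-gp; assay medium lacked colchicine. 72 h drug exposure at 37 degree C, CellTiter-Glo.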

[2] = molecular target: Ubiquitin carboxyl-terminal hydrolase 1 (Homo sapiens) (UniProt O94782); assay: Inhibitors of USP1/UAF1: Pilot qHTS (AID 504865);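 also: rhodamine fluorescence freed from ubiquitin-rhodamine substrate followed over time; nearly all actives have a fitted effect of over 35% in size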
UniProt O94782, sequence (O94782 whole entry, looked up): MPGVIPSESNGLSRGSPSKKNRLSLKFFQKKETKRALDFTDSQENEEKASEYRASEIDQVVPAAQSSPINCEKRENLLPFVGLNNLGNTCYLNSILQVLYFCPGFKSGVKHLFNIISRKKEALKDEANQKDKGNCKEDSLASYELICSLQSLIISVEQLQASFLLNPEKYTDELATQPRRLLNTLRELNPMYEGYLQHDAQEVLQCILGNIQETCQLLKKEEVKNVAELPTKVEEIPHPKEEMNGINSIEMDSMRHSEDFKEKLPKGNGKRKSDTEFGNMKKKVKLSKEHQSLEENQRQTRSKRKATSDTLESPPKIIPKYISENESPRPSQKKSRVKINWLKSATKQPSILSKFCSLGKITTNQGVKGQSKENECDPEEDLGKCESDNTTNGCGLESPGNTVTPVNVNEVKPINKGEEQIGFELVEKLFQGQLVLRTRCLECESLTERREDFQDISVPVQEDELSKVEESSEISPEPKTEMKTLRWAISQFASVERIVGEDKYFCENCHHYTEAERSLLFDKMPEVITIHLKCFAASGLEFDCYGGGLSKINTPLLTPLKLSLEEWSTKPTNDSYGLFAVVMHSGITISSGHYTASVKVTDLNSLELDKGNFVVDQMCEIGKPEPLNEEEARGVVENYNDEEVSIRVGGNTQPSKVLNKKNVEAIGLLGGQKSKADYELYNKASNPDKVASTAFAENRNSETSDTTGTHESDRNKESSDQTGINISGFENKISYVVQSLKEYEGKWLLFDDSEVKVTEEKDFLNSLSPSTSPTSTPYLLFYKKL
Summary of the method: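 In 50mM HEPES pH 7.8 containing 0.5mM EDTA, 1mM TCEP, 0.1 mg/ml BSA and 0.01% Tween-20, 1nM USP1/UAF1 is exposed to compound for 15 min, then Ub-Rho (150nM final) is added and fluorescence is read over time.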
Potency is read from the fitted curve at half-maximal effect; tags tell the direction and shape of the fitted curve.

Row | SMILES | Potency [1] | Potency [2]
1 | C=C1[C@H](OC(C)=O)[C@H]2[C@@H](OC(C)=O)[C@](C)(OC(C)=O)C[C@]2(OC(C)=O)C(=O)[C@H](C)/C=C/C(C)(C)C(=O)[C@H](OC(=O)C(C)C)[C@H]1OC(C)=O | inconclusive: 4.32 µM [inhibitor, partial curve, poor fit] | 
2 | O=c1cc(N2CCNCC2)oc2c(-c3ccccc3)cccc12 | inconclusive: 9.2 µM [inhibitor, partial curve] | 
3 | CCCn1cnc2c(NCc3ccc(C)s3)nc(N[C@H](CC)CO)nc21 | inconclusive: 8.2 µM [inhibitor, partial curve] | 
4 | COc1cc2ncnc(Nc3ccc(NC(=O)c4ccccc4)cc3)c2cc1OC | inconclusive: 29.1 µM [inhibitor, single point] | 
5 | C[C@@H](NC(=O)c1cc(C(=O)N[C@@H](Cc2ccccc2)[C@H](O)CNC2CC2)cc(N(C)S(C)(=O)=O)c1)c1ccccc1 | inactive | 
6 | Cn1nc(C(C)(C)C)cc1C(=O)NC(Cc1cccc(Cl)c1)C(=O)NCC#N (stereo not drawn) | inconclusive: 32.6 µM [inhibitor, partial curve, poor fit] | 
7 | CC(C)n1cnc2c(NCc3cccc(C(F)(F)F)c3)ncnc21 | inconclusive: 23.1 µM [inhibitor, single point] | 
8 | Cc1cc(/C=c2/sc3nc4ccccc4n3c2=O)c(C)n1-c1ccccc1 | inconclusive: 6.51 µM [inhibitor, partial curve, poor fit] | 
9 | CC(C)n1nc(Cc2cccc3ccccc23)c2c(N)ncnc21 | active: 18.4 µM | 
10 | Nc1ccc(-c2cnc(N)c(-c3ccc(Cl)cc3)c2)cn1 | inconclusive: 20.6 µM [inhibitor, single point] | 
11 | Cc1ccc(C(=O)/C=C/c2ccccc2)s1 | inconclusive: 29.1 µM [inhibitor, single point] | 
12 | Nc1ccn([C@H]2O[C@@H](CO)[C@H](O)[C@H]2O)c(=O)n1 | inconclusive: 5.8 µM [inhibitor, partial curve] | 
13 | COc1ccc(CCNCc2ccc(OCc3ccc(Cl)nc3)c(OC)c2)cc1OC | inconclusive: 1.64 µM [inhibitor, full curve] | 
14 | c1ccc(-c2[nH]ncc2-c2ccnc3ccccc23)nc1 | inconclusive: 23.1 µM [inhibitor, single point] | 
15 | O=C(NOCCO)c1ccc2cncn2c1Nc1ccc(I)cc1F | inactive | 
16 | CCN(CC)CCC(=O)N1c2ccccc2Sc2ccc(C(F)(F)F)cc21 | inconclusive: 20.6 µM [inhibitor, single point] | 
17 | CS(=O)(=O)c1ccc([C@@H](O)[C@@H](COC(=O)CN)NC(=O)C(Cl)Cl)cc1 | inconclusive: 18.4 µM [inhibitor, single point] | 
18 | CC(=O)S[C@@H]1CC2=CC(=O)CC[C@]2(C)[C@H]2CC[C@@]3(C)[C@@H](CC[C@@]34CCC(=O)O4)[C@H]12 | inconclusive: 29.1 µM [inhibitor, single point] | 
19 | S=C1SCN(Cc2ccccc2)CN1Cc1ccccc1 | inconclusive: 29.1 µM [inhibitor, single point] | inconclusive: 15.8 µM [inhibitor, partial curve, poor fit]
20 | CN(C)CCC=C1c2ccccc2C(C)(C)c2ccccc21 | inconclusive: 20.6 µM [inhibitor, single point] | active: 56.2 µM
21 | CCCc1nc(C(C)(C)O)c(C(=O)OCc2oc(=O)oc2C)n1Cc1ccc(-c2ccccc2-c2nn[nH]n2)cc1 | inconclusive: 32.6 µM [inhibitor, single point] | 
22 | NC1Nc2ccccc2C1(N)CC1NC(=O)C(Cc2ccccc2)NC(=O)C(Cc2ccccc2)NC1=O (stereo not drawn) | inactive | 
23 | CCCCC | inactive | 
24 | CCN(CC)CCOc1ccc2nc(N(C)C)sc2c1 | inconclusive: 14.6 µM [inhibitor, partial curve] | inactive

Row | SMILES | Potency [1] | Potency [2]
25 | O=C(O)c1cc(O)c2c(c1)[C@H]([C@H]1c3cc(C(=O)O)cc(O)c3C(=O)c3c(O[C@@H]4O[C@H](CO)[C@@H](O)[C@H](O)[C@H]4O)cccc31)c1cccc(O[C@@H]3O[C@H](CO)[C@@H](O)[C@H](O)[C@H]3O)c1C2=O | inactive | 
26 | O=C(CCCN1CCC(n2c(=S)[nH]c3ccccc32)CC1)c1ccc(F)cc1 | active: 9.2 µM | 
27 | CN1CCC(OC(=O)C(Oc2ccc(Cl)cc2)Oc2ccc(Cl)cc2)CC1 | inactive | 
28 | COC(=O)c1ccccc1O | inactive | 
29 | c1ccc2c(c1)Sc1ccccc1N2CCN1CCCC1 | inconclusive: 18.4 µM [inhibitor, partial curve] | inactive
30 | COC(=O)c1ccc(=O)c2nc3/c(=C/O)c(O)cc(=O)c3[nH]c12 | inactive | 
31 | CC(=O)[C@H]1CC[C@H]2[C@@H]3C=CC4=CC(=O)CC[C@@]4(C)[C@H]3CC[C@]12C | inconclusive: 11.1 µM [inhibitor, single point] | 
32 | COc1ccc(/C=C/C(N)=O)cc1OC | inactive | 
33 | CCN(CC)C(=O)c1cccnc1 | inactive | 
34 | CC(=O)Nc1c(I)c(C(=O)O)c(I)c(N(C)C(C)=O)c1I | inactive | 
35 | O=P(O)(O)CP(=O)(O)O | inactive | 
36 | CC(C)NCC(O)COc1ccccc1-n1cccc1 (stereo not drawn) | inconclusive: 29.1 µM [inhibitor, single point] | 
37 | Nc1ncnc2c1c(I)cn2C1OC(CO)C(O)C1O (stereo not drawn) | active: 2.31 µM | 
38 | CC(C)(C)CC(C)(C)c1ccc(OCCO)cc1 | active: 13 µM | 
39 | O=C(NNCNNC(=O)c1ccncc1)c1ccncc1 | inactive | 
40 | CC(C)OC(=O)Nc1ccc2nc(-c3cscn3)[nH]c2c1 | active: 4.61 µM | 
41 | C=C1C(CCl)(CCl)C2(Cl)C(Cl)C(Cl)C1(Cl)C2(Cl)Cl (stereo not drawn) | inconclusive: 16.4 µM [inhibitor, single point] | inconclusive: 56.2 µM [inhibitor, partial curve, poor fit]
42 | C=CC(=O)O | inactive | 
43 | COc1ccc(/C=C/C(=O)OCCC(C)C)cc1 | inactive | inconclusive: 56.2 µM [inhibitor, partial curve, poor fit]
44 | CC(C)C(N)C(=O)OCC(CO)OCn1cnc2c(=O)[nH]c(N)nc21 (stereo not drawn) | inactive | 
45 | CC(C/C=C/C(C)(C)O)C1CCC(C)(O)C(O)C1 (stereo not drawn) | inactive | 
46 | CC1=C(C(=O)OCCN(Cc2ccccc2)c2ccccc2)C(c2cccc([N+](=O)[O-])c2)C(P2(=O)OCC(C)(C)CO2)=C(C)N1 (stereo not drawn) | inconclusive: 29.1 µM [inhibitor, single point] | 
47 | CN(C)CCOc1ccccc1Cc1ccccc1 (tested in a mixture with another compound) | inconclusive: 16.4 µM [inhibitor, single point] | 
